# The other results are listed elsewhere or left out. Sequences were assembled here from the parent chain. Values near 0.05 are background.
# B1: TEV protease; numbered along this chain (parent)
# chain: MGESLFKGPRDYNPISSSICHLTNESDGHTTSLYGIGFGPFIITNKHLFRRNNGTLVVQSLHGVFKVKDTTTLQQHLVDGRDMIIIRMPKDFPPFPQKLKFREPQREERICLVTTNFQTKSMSSMVSDTSCTFPSGDGIFWKHWIQTKDGQCGSPLVSTRDGFIVGIHSASNFTNTNNYFTSVPKNFMELLTNQEAQQWVSGWRLNADSVLWGGHKVFMVKPEEPFQPVKEATQL
# Variants of: B1
# Assay: raw area under fraction-flipped curve 0-4 h after induction (AUC4h, not background-subtracted), DNA-recorder readout of cleavage of the substrate (dimensionless); higher = more cleavage of the substrate by the protease variant
# Conditions: temperature: 34 °C; time window: 0-4 h after rhamnose induction
# 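Note: Bxb1 expression induced with 0.2% (w/v) L-rhamnose at OD600 near 0.5, cultures sampled hourly, flipped fraction per protease–substrate barcode pair counted by paired-end Illumina sequencing.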
Variant,area with substrate ENDYFQS,area with substrate ENEYFQS,area with substrate ENHYFQS,area with substrate ENKYFQS,area with substrate ENNYFQS,area with substrate ENRYFQS,area with substrate ENSYFQS,area with substrate ENVYFQS,area with substrate ENYYFQS,area with substrate ENGYFQS
L77R,0.0618,0.061,0.0704,0.0571,0.0531,0.0531,0.0765,0.0426,0.0644,–
V78I,0.0642,–,–,0.0548,–,0.0519,–,–,0.0473,0.0647
R81V,0.07,–,0.0692,0.0479,–,0.0768,0.0635,–,–,–
R87D,0.0465,0.0459,–,0.0487,0.0559,0.0552,0.048,–,0.0433,–
M88L,0.053,0.0608,–,0.0613,–,0.0378,0.0689,0.0849,–,–
K90M,0.0586,0.0564,–,0.0508,–,–,–,–,–,–
D91T,0.0553,–,0.0481,–,0.0637,–,–,–,–,–
P93D,0.0426,0.0612,0.0329,–,0.0649,–,0.0582,0.0812,0.0463,0.0598
F95L,0.0526,–,–,–,0.0954,0.0628,–,–,–,0.0486
Q97E,0.0724,0.0532,–,–,–,–,0.0628,–,–,–
L99W,0.0741,–,–,–,–,–,0.0488,0.0644,–,–
K100D,0.0604,0.058,–,0.0692,0.0516,–,–,0.0711,–,–
F101H,0.0571,0.0511,–,0.0673,0.0609,–,0.0501,–,–,–
R102E,0.0635,–,0.0571,0.0592,–,0.0411,0.0681,0.0464,0.0531,0.0453
R106N,0.059,0.0602,0.0578,–,–,–,0.0659,0.0771,0.0774,–
E108G,0.062,0.0581,–,–,–,0.083,0.0548,0.074,–,0.0425
R109Y,0.0231,0.0702,0.0661,0.0601,–,0.0642,0.0591,–,–,–
T115K,0.0477,–,0.0702,–,–,0.0525,0.0626,0.0687,–,–
N116T,0.0701,–,–,–,–,–,0.0691,–,–,–
F117P,0.068,0.074,–,0.0636,0.0856,0.0842,0.0633,–,–,0.0565
T119W,0.0583,0.0636,–,–,–,–,–,0.0749,–,–
T129H,0.0598,0.0643,–,0.0577,–,–,0.0557,–,–,–
C131P,0.0561,–,0.0799,–,–,–,–,0.0896,–,–
S135H,0.0572,0.0719,–,–,0.0778,–,–,0.0369,–,0.0593
D137T,0.0409,–,–,–,–,–,0.0562,–,–,–

Variant,area with substrate ENDYFQS,area with substrate ENEYFQS,area with substrate ENHYFQS,area with substrate ENKYFQS,area with substrate ENNYFQS,area with substrate ENRYFQS,area with substrate ENSYFQS,area with substrate ENVYFQS,area with substrate ENYYFQS,area with substrate ENGYFQS
G138A,0.0507,–,–,–,–,0.0454,–,–,–,–
W141N,0.0476,0.0696,0.0584,–,–,–,0.0698,0.0566,0.0495,–
G150A,0.0614,–,0.0825,0.0763,0.0598,–,0.0681,–,0.0699,–
S154N,0.0488,0.0457,–,–,–,–,–,–,–,–
S158E,0.0688,–,–,–,–,–,0.0517,–,–,–
S158L,0.0525,–,–,–,0.0521,0.045,–,–,–,–
T159P,0.0631,0.0496,–,–,–,–,–,–,0.0604,–
G162V,0.0498,–,–,–,–,–,0.0567,0.0736,0.0437,0.0387
F163N,0.069,0.0867,–,–,–,0.077,0.0699,–,–,–
V165I,0.0725,–,0.0824,–,0.0496,–,–,–,0.0923,–
N172L,0.0644,–,–,–,–,–,–,–,–,–
N172Q,0.0531,–,–,0.0655,0.0578,–,–,–,–,0.06
N172W,0.0634,–,–,–,–,–,–,–,–,–
T174I,0.0602,–,–,–,–,–,–,–,–,0.0744
Y179D,0.077,–,–,–,–,–,0.0515,0.0526,–,–
T181E,0.0586,–,–,–,0.0636,–,0.069,0.0623,–,–
T181I,0.0423,0.079,–,–,–,–,0.0788,–,–,–
K185L,0.0453,–,0.0597,0.064,–,–,0.0651,0.0627,–,0.0579
N186T,0.0523,0.0655,0.052,0.0542,–,0.0822,–,0.0744,0.0399,–
L190F,0.0519,0.0591,–,–,–,–,0.0513,–,–,0.0486
L190P,0.0648,–,–,–,0.0438,0.0467,0.0548,0.0748,0.065,–
L191Q,0.0678,–,0.0706,0.054,0.0491,–,–,0.0348,0.0494,–
N193K,0.0456,–,–,–,–,–,–,–,–,0.0445
Q194I,0.0651,–,–,–,0.0573,0.07,0.0479,–,0.0596,0.0462

# Same assay, conditions: temperature: 34 °C; time window: 0-4 h after rhamnose induction
Variant,area with substrate ENTYFQS,area with substrate ENMYFQS,area with substrate ENQYFQS,area with substrate ENPYFQS,area with substrate ENWYFQS,area with substrate ENIYFQS,area with substrate ENFYFQS
V78I,0.0934,–,–,–,–,–,–
R81V,–,0.083,0.0435,–,–,–,–
R87D,0.0522,0.0702,–,0.049,–,–,–
M88L,0.0598,–,0.0577,0.0598,–,–,–
K90M,–,–,0.033,–,–,–,–
D91T,0.0617,–,0.0811,–,–,–,–
P93D,–,–,–,0.0735,0.0547,–,–
F95L,–,–,0.0594,–,–,–,–
Q97E,0.047,0.0768,–,0.0466,–,–,–
L99W,–,–,0.0605,0.0466,–,0.102,–
K100D,0.0591,–,0.0514,0.0504,–,–,0.059
F101H,0.0449,0.0441,–,–,0.0684,–,0.0615
R102E,0.0529,–,0.044,0.0408,0.0336,–,–
R106N,–,–,0.0105,–,–,–,–
E108G,0.0636,–,0.0435,–,–,–,–
R109Y,0.0817,–,0.0686,–,–,0.0975,–
T115K,0.0643,–,0.0626,–,–,0.161,0.0579
N116T,–,0.066,–,–,–,–,–
F117P,0.0685,0.0791,0.0518,–,–,0.0799,–
T129H,–,–,0.0767,0.0498,–,–,–
C131P,–,–,–,0.0786,–,–,–

Variant,area with substrate ENTYFQS,area with substrate ENMYFQS,area with substrate ENQYFQS,area with substrate ENPYFQS,area with substrate ENWYFQS,area with substrate ENIYFQS,area with substrate ENFYFQS
S135H,0.0471,0.0611,0.0687,–,–,0.0573,0.0616
D137T,–,–,0.005,–,–,–,–
W141N,–,–,–,–,0.0598,–,–
G150A,–,0.0579,–,–,–,–,–
S154N,–,–,0.0925,–,–,–,0.0587
S158E,–,–,0.057,0.0595,–,–,–
T159P,0.0737,–,–,0.0824,–,0.147,–
F163N,0.097,–,–,–,0.0577,–,–
V165I,–,0.0803,–,–,–,0.143,–
N172W,–,–,–,–,–,–,0.0457
T174I,–,0.0768,–,–,–,–,–
Y179D,–,0.0265,–,–,–,–,0.0619
T181E,–,–,–,0.0518,0.0613,–,–
T181I,–,–,0.0373,–,–,–,–
K185L,–,–,0.0442,–,–,0.112,–
N186T,–,0.0847,–,0.0551,0.0589,–,0.0603
L190F,0.0486,–,0.0739,–,–,–,–
L190P,0.0453,–,0.0504,–,0.0565,–,0.0624
L191Q,0.0482,0.0746,–,–,–,–,–
N193K,–,–,0.0745,–,–,0.156,0.0455
Q194I,–,–,–,0.0481,–,–,0.0673
